The target in assay [1] is T1, human TGFβ1 (human, UniProt P01137 in part). The experiment in a line: cell-based or functional assay.
Assay [2] concerns the target T2, human PD-L1 expressed on cells (human, UniProt Q9NZQ7).
T2 construct: whole, on cells; also called MC38/hPD-L1
The experiment in a line: flow cytometry on NCI-H292 cells, Mean FITC-A.

In assay [3] the target is T2, human PD-L1 expressed on cells. Briefly: flow cytometry on MC38/hPD-L1 cells, Mean FITC-A.
In the next assay the target is T3, hPD-L2 (human, UniProt Q9BQ51 20-219, limits assumed).
T3 sequence (looked up): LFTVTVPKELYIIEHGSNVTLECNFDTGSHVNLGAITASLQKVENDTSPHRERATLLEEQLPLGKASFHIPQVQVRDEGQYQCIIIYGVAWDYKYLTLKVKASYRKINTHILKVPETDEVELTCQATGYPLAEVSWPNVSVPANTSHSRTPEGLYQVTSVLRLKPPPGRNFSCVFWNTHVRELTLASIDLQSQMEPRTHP
Briefly: ELISA, hPD-L2 (0.5 ug/mL) coated, anti-human Fc-HRP, OD450. In general terms: ELISA stands for enzyme-linked immunosorbent assay.

The target of the next assay is T4, B7-1 (UniProt P33681 35-242, limits assumed).
T4 construct: also called CD80
T4 sequence (looked up): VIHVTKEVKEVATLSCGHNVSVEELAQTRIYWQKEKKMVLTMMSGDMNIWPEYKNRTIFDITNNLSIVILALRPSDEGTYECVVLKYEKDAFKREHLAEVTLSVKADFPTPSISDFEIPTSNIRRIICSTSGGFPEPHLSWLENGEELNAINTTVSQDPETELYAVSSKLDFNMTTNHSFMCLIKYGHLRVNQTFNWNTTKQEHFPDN
The experiment in a line: ELISA, antigen (0.5 ug/mL) coated, anti-human Fc-HRP, OD450.

The next assay concerns the target T5, B7-2 (UniProt P42081 24-247, limits assumed).
T5 construct: also called CD86
T5 sequence (looked up): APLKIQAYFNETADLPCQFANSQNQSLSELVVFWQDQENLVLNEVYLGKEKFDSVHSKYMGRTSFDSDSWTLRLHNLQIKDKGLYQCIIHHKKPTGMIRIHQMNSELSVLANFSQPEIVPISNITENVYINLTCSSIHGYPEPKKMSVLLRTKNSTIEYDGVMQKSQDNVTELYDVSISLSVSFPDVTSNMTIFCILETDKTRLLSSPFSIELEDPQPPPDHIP
The assay is described as above.

The target of another assay is T6, B7-H2 (UniProt O75144 19-258, limits assumed).
T6 sequence (looked up): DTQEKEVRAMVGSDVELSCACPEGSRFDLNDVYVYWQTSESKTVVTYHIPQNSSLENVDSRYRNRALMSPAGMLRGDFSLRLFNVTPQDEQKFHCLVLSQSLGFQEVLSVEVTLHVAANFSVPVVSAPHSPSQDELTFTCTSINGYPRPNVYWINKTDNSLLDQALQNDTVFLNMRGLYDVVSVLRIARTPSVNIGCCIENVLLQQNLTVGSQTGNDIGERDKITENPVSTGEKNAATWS
Described as above.

Another assay concerns the target T7, B7-H3 (UniProt Q5ZPR3 29-461, limits assumed).
T7 sequence (looked up): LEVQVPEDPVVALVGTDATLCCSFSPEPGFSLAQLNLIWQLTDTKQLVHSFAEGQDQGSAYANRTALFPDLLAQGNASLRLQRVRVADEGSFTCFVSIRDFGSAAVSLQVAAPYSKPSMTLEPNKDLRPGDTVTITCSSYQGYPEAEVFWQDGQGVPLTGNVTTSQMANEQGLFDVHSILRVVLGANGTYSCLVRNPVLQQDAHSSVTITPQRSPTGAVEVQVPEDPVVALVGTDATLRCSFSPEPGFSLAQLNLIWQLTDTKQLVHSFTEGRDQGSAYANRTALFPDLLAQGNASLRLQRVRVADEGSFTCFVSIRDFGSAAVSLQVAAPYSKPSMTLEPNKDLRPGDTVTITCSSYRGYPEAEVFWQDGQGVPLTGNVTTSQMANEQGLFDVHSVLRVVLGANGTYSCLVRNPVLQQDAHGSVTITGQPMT
Described as above.

The target in the next assay is VISTA (UniProt Q9H7M9 33-194, limits assumed). The description is as above.
The target of the next assay is T8, human Activin A (human, UniProt P08476 311-426).
T8 sequence (looked up): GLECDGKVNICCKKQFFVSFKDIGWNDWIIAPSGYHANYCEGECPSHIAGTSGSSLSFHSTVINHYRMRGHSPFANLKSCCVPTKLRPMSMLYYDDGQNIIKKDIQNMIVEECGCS
The description is as above.

Another assay addresses T9, human BMP-2 (human, UniProt P12643 283-396).
T9 sequence (looked up): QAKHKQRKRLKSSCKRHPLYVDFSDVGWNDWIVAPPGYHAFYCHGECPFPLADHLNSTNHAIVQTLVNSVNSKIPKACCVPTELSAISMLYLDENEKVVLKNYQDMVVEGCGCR
The description is as above.

In the next assay the target is T10, human LAP (human, UniProt P01137 in part).
T10 construct: domain: LAP
Described as above.

Assay [4] deals with T1, human TGFβ1. Briefly: ELISA, human TGFβ1 (0.5 ug/mL) coated, anti-human Fc-HRP, OD450.

The source of these data is patent US20250282874A1 (SUZHOU TRANSCENTA THERAPEUTICS, published 2025).

Broadly, the EC50 is the concentration at which the effect is half-maximal. Read a low EC50 as a more potent agent. Usually EC50 (read off the curve) stands for the concentration giving half of the maximal effect.

T2 sequence (Q9NZQ7 19-290): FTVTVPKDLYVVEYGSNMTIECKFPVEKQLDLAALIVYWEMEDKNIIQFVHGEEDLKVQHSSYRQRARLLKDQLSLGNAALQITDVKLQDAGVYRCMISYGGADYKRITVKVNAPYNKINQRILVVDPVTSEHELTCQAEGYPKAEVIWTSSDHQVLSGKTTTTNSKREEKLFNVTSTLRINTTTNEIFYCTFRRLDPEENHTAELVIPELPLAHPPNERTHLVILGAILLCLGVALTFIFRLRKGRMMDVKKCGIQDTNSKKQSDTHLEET

B1: AM4B6-hIgG1-TGFβRII′ (other)
heavy: QVQLVQSGAEVKKPGASVKVSCKASGYVFTDYYMNWVRQAPGQSLEWMGDINPNNAETLYNHKFKGRVTVTVDKSISTAYMELSRLRSDDTAVYYCVKWGDGPFAYWGQGTLVTVSS[human IgG1 constant region omitted here]GGGGSGGGGSGGGGSGGGGSGGAVKFPQLCKFCDVRFSTCDNQKSCMSNCSITSICEKPQEVCVAVWRKNDENITLETVCHDPKLPYHDFILEDAASPKCIMKEKKKPGETFFMCSCSSDECNDNIIFSEEYNTSNPD
light: DIQMTQSPSSLSASVGDRVTITCKASQNVGAAVAWYQQKPGKAPKLLIYSVSDRYTGVPSRFSGSGSGTDFTLTISSLQPEDIATYYCQQYSNYPTFGQGTKLEIKRTVAAPSVFIFPPSDEQLKSGTASVVCLLNNFYPREAKVQWKVDNALQSGNSQESVTEQDSKDSTYSLSSTLTLSKADYEKHKVYACEVTHQGLSSPVTKSFNRGEC
Regarding B1, in the assay with human TGFβ1 [1], the “IC50 of blocking TGFβ1 signaling (TGFβ reporter HEK-293 cell line, luciferase)” value amounted to 0.35 nM. Moreover, the EC50 in assay [2] turned out to be 0.298 nM; in [3] it was 0.437 nM. Besides, the binding result with hPD-L2, with B7-1, with B7-2, with B7-H2, in the assay with B7-H3 and with VISTA was “no binding (tested: 100 nM)” throughout. Moreover, the binding result with human Activin A, with human BMP-2 and with human LAP was “no binding (tested: 100 nM)” each time. Besides, in the assay with human TGFβ1 [4], the “EC50 (read off the curve)” value is approximately 0.9 nM.
